# From the supplement of paper PMC12217912
# The list shows a part of the results. Sequences were assembled here from the parent chain. Inactive controls read about 0.05.
# B1: TEV protease; numbered along this chain (parent)
# chain: MGESLFKGPRDYNPISSSICHLTNESDGHTTSLYGIGFGPFIITNKHLFRRNNGTLVVQSLHGVFKVKDTTTLQQHLVDGRDMIIIRMPKDFPPFPQKLKFREPQREERICLVTTNFQTKSMSSMVSDTSCTFPSGDGIFWKHWIQTKDGQCGSPLVSTRDGFIVGIHSASNFTNTNNYFTSVPKNFMELLTNQEAQQWVSGWRLNADSVLWGGHKVFMVKPEEPFQPVKEATQL
# Variants of: B1
# Test: raw area under fraction-flipped curve 0-4 h after induction (AUC4h, not background-subtracted), DNA-recorder readout of cleavage of the substrate (dimensionless); higher = more cleavage of the substrate by the protease variant
# Details: temperature: 34 °C; time window: 0-4 h after rhamnose induction
# Experimental: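 In vivo DNA recorder in E. coli TOP10(DE3) ΔrhaA at 34 °C. Each TEVp single-site mutant (parent TEVp 0) is paired with a single-site variant of the 7-mer TEVs (canonical ENLYFQ|S). The substrate sits between flexible linkers in a Bxb1-sfGFP-TEVs-SsrA fusion, so cleavage stabilises Bxb1 and speeds flipping of a recombination array, read by NGS. The value is the raw area under the fraction-flipped curve over 0-4 h after rhamnose induction (AUC4h), with ≥20 reads per time point. It is not background-subtracted; inactive controls average about 0.047.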
# 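Also: Bxb1 expression induced with 0.2% (w/v) L-rhamnose at OD600 near 0.5, cultures sampled hourly, flipped fraction per protease–substrate barcode pair counted by paired-end Illumina sequencing.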
Variant,area with substrate ENLYFQA,area with substrate ENLYFQC,area with substrate ENLYFQF,area with substrate ENLYFQG,area with substrate ENLYFQI,area with substrate ENLYFQK,area with substrate ENLYFQL,area with substrate ENLYFQR,area with substrate ENLYFQS,area with substrate ENLYFQT,area with substrate ENLYFQV,area with substrate ENLYFQE,area with substrate ENLYFQH,area with substrate ENLYFQM,area with substrate ENLYFQN,area with substrate ENLYFQP,area with substrate ENLYFQQ,area with substrate ENLYFQW,area with substrate ENLYFQY,area with substrate ENLYFQD
MGESLFKGPRDYNPISSSICHLTNESDGHTTSLYGIGFGPFIITNKHLFRRNNGTLVVQSLHGVFKVKDTTTLQQHLVDGRDMIIIRMPKDFPPFPQKLKFREPQREERICLVTTNFQTKSMSSMVSDTSCTFPSGDGIFWKHWIITKDGQCGSPLVSTRDGFIVGIHSASNFTNTNNYFTSVPKNFMELLTNQEAQQWVSGWRLNADSVLWGGHKVFMVKPEEPFQPVKEATQL [Q146I],0.124,0.118,0.089,0.0956,0.0603,0.0612,0.0609,0.0634,0.108,0.0642,0.074,–,–,–,–,–,–,–,–,–
MGESLFKGPRDYNPISSSICHLTNESDGHTTSLYGIGFGPFIITNKHLFRRNNGTLVVQSLHGVFKVKDTTTLQQHLVDGRDMIIIRMPKDFPPFPQKLKFREPQREERICLVTTNFQTKSMSSMVSDTSCTVPSGDGIFWKHWIQTKDGQCGSPLVSTRDGFIVGIHSASNFTNTNNYFTSVPKNFMELLTNQEAQQWVSGWRLNADSVLWGGHKVFMVKPEEPFQPVKEATQL [F133V],0.107,0.121,–,–,0.055,0.0718,0.0631,0.0581,0.11,0.0817,0.0566,0.0678,0.113,0.0795,0.0776,0.0553,0.0881,0.0532,0.0828,–
MGESLFKGPRDYNPISSSICHLTNESDGHTTSLYGIGFGPFIITNKHLFRRNNGTLVVQSLHGVFKVKDTTTLQQHLVDGRDMIIIRMPKDFPPFPQKLKFREPQREERICLVTTNFQTKSMSSMVSDTSCTFPSGDGIFWKDWIQTKDGQCGSPLVSTRDGFIVGIHSASNFTNTNNYFTSVPKNFMELLTNQEAQQWVSGWRLNADSVLWGGHKVFMVKPEEPFQPVKEATQL [H143D],0.0617,0.0612,–,0.0665,0.0575,–,0.0524,0.0518,0.0635,0.0469,0.0504,–,–,0.0568,0.0583,0.0658,–,0.0568,–,–
MGESLFKGPRDYNPISSSICHLTNESDGHTTSLYGIGFGPFIITNKHLFRRNNGTLVVQSLHGVFKVKDTTTLQQHLVDGRDMIIIRMPKDFPPFPQKLKFREPQREERICLVTTNFQTKSMSSMESDTSCTFPSGDGIFWKHWIQTKDGQCGSPLVSTRDGFIVGIHSASNFTNTNNYFTSVPKNFMELLTNQEAQQWVSGWRLNADSVLWGGHKVFMVKPEEPFQPVKEATQL [V126E],0.0881,–,–,–,–,0.0614,0.0728,0.0615,0.078,0.0793,–,–,–,0.092,–,–,–,0.0597,–,–
MGESLFKGPRDYNPISSSICHLTNESDGHTTSLYGIGFGPFIITNKHLFRRNNGTLVVQSLHGVFKVKDTTTLQQHLVDGRDMIIIRMPKDFPPFPQKLKFREPQREERICLVTTNFQTKSMSSMVSDCSCTFPSGDGIFWKHWIQTKDGQCGSPLVSTRDGFIVGIHSASNFTNTNNYFTSVPKNFMELLTNQEAQQWVSGWRLNADSVLWGGHKVFMVKPEEPFQPVKEATQL [T129C],0.087,0.0902,–,0.08,0.0507,0.0503,0.0577,0.0493,0.1,0.0642,–,–,0.0671,0.0902,0.0884,–,–,–,0.0732,0.0695
MGESLFKGPRDYNPISSSICHLTNESDGHTTSLYGIGFGPFIITNKHLFRRNNGTLVVQSLHGVFKVKDTTTLQQHLVDGRDMIIIRMPKDFPPFPQKLKFREPQREERICLVTTNFQTKSMSSMVMDTSCTFPSGDGIFWKHWIQTKDGQCGSPLVSTRDGFIVGIHSASNFTNTNNYFTSVPKNFMELLTNQEAQQWVSGWRLNADSVLWGGHKVFMVKPEEPFQPVKEATQL [S127M],0.133,0.117,0.0993,–,0.0668,0.0593,0.0236,0.056,0.11,0.0722,0.0646,–,0.0822,0.0591,–,0.0343,–,0.0607,0.0868,–
MGESLFKGPRDYNPISSSICHLTNESDGHTTSLYGIGFGPFIITNKHLFRRNNGTLVVQSLHGVFKVKDTTTLQQHLVDGRDMIIIRMPKDFPPFPQKLKFREPQREERICLVTTNFQTKSMSSMVSDTICTFPSGDGIFWKHWIQTKDGQCGSPLVSTRDGFIVGIHSASNFTNTNNYFTSVPKNFMELLTNQEAQQWVSGWRLNADSVLWGGHKVFMVKPEEPFQPVKEATQL [S130I],0.088,0.117,0.0655,0.121,0.0542,–,0.0551,0.0644,0.101,–,–,–,0.0789,0.0882,0.0383,0.0511,–,0.066,–,–
MGESLFKGPRDYNPISSSICHLTNESDGHTTSLYGIGFGPFIITNKHLFRRNNGTLVVQSLHGVFKVKDTTTLQQHLVDGRDMIIIRMPKDFPPFPQKLKFREPQREERICLVTTNFQTKSMSSMVSDTPCTFPSGDGIFWKHWIQTKDGQCGSPLVSTRDGFIVGIHSASNFTNTNNYFTSVPKNFMELLTNQEAQQWVSGWRLNADSVLWGGHKVFMVKPEEPFQPVKEATQL [S130P],0.0601,–,–,–,–,0.0413,0.0371,0.0128,0.0518,0.0469,–,–,0.0475,–,0.0447,–,–,0.0437,0.0405,0.0231
MGESLFKGPRDYNPISSSICHLTNESDGHTTSLYGIGFGPFIITNKHLFRRNNGTLVVQSLHGVFKVKDTTTLQQHLVDGRDMIIIRMPKDFPPFPQKLKFREPQREERICLVTTNFQTKSMSSMVSDTWCTFPSGDGIFWKHWIQTKDGQCGSPLVSTRDGFIVGIHSASNFTNTNNYFTSVPKNFMELLTNQEAQQWVSGWRLNADSVLWGGHKVFMVKPEEPFQPVKEATQL [S130W],0.0708,0.0824,0.0613,0.0611,0.0561,0.0637,0.0457,–,0.0728,0.0541,–,–,0.0682,0.0848,–,0.0591,–,0.054,0.0658,–
